Results taken from the supplement of paper PMC4967469.
The IC50 comes from the fitted curve, where viability falls to half of the control; where the fit passes the top or lowest dose, that dose stands as a limit. AUC is the area under the same curve over the 256-fold range up to the top dose, as a fraction; values near 1 show little effect. The top dose, if marked as inferred, comes from the curve model; the source does not state it. For part of these data: Drugs with an entry number were screened twice under separate entries, and the two screens often disagree.

Legend:
Experiment in all cases: Viability of human cancer cell lines after 72 h of drug (GDSC screen)
Olaparib = compound: O=C(c1cc(Cc2n[nH]c(=O)c3ccccc23)ccc1F)N1CCN(C(=O)C2CC2)CC1 [Olaparib]
Experimental: (§1)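 Human cancer cell lines in 384-well plates, medium with 10% serum, drug for 72 h over a 256-fold dose range (nine 2-fold or five 4-fold steps up to the top dose). Adherent lines were fixed and stained with the nucleic acid dye Syto60, suspension lines read with resazurin; signal relative to control wells, capped at 0 and 100%. One two-parameter sigmoid per drug and line, fitted in a mixed model over all curves with the slope shared within a line.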

XMD8-85 = compound: COc1cc(N2CCN(C)CC2)ccc1Nc1ncc2c(n1)N(C)c1ccccc1C(=O)N2C [XMD8-85]; conditions: top dose 8 µM; top dose inferred
Experimental: as §1

CGP-082996 (CINK4) = compound: CCNc1cc(NC2CCC(O)CC2)nc(Nc2ccc3c(ccn3Cc3ccccc3)c2)n1 [CGP-082996 (CINK4)]; conditions: top dose 5.12 µM; top dose inferred
Experimental: as §1

HG-5-113-01 = compound: CNC(=O)c1ccc(Nc2cc(Nc3ccccc3S(=O)(=O)C(C)C)c3cc[nH]c3n2)nc1 [HG-5-113-01]; conditions: top dose 10 µM; top dose inferred
Experimental: as §1

A-770041 = compound: COc1cc(-c2nn([C@H]3CC[C@H](N4CCN(C(C)=O)CC4)CC3)c3ncnc(N)c23)ccc1NC(=O)c1cc2ccccc2n1C [A-770041]; conditions: top dose 5.12 µM; top dose inferred
Experimental: as §1

Wee1 inhibitor 681640 = compound: O=C1NC(=O)c2c1c(-c1ccccc1Cl)cc1[nH]c3ccc(O)cc3c21 [Wee1 inhibitor 681640]; conditions: top dose 2 µM; top dose inferred
Experimental: as §1

BMS-536924 = compound: Cc1cc(N2CCOCC2)cc2[nH]c(-c3c(NC[C@@H](O)c4cccc(Cl)c4)cc[nH]c3=O)nc12 [BMS-536924]
Experimental: as §1

SB-525334 = compound: Cc1cccc(-c2[nH]c(C(C)(C)C)nc2-c2ccc3nccnc3c2)n1 [SB-525334]; conditions: top dose 20 µM; top dose inferred
Experimental: as §1

Shikonin = compound: CC(C)=CC[C@@H](O)C1=CC(=O)c2c(O)ccc(O)c2C1=O [Shikonin]; conditions: top dose 16 µM; top dose inferred
Experimental: as §1

BIRB 0796 = compound: Cc1ccc(-n2nc(C(C)(C)C)cc2NC(=O)Nc2ccc(OCCN3CCOCC3)c3ccccc23)cc1 [BIRB 0796]; conditions: top dose 10 µM; top dose inferred
Experimental: as §1

VX-702 = compound: NC(=O)c1ccc(N(C(N)=O)c2c(F)cccc2F)nc1-c1ccc(F)cc1F [VX-702]; conditions: top dose 2 µM; top dose inferred
Experimental: as §1

[1] = top dose 5 µM, screen: GDSC drug entry 1017, top dose inferred
[2] = top dose 10 µM, screen: GDSC drug entry 1495
[3] = top dose 4 µM, screen: GDSC drug entry 1091, top dose inferred
[4] = top dose 5.12 µM, screen: GDSC drug entry 62

Cell Line	AUC (Olaparib; [1])	IC50 (Olaparib; [1]) [µM]	AUC (Olaparib; [2])	IC50 (Olaparib; [2]) [µM]	AUC (XMD8-85)	IC50 (XMD8-85) [µM]	AUC (CGP-082996 (CINK4))	IC50 (CGP-082996 (CINK4)) [µM]	AUC (HG-5-113-01)	IC50 (HG-5-113-01) [µM]	AUC (A-770041)	IC50 (A-770041) [µM]	AUC (Wee1 inhibitor 681640)	IC50 (Wee1 inhibitor 681640) [µM]	AUC (BMS-536924; [3])	IC50 (BMS-536924; [3]) [µM]	AUC (BMS-536924; [4])	IC50 (BMS-536924; [4]) [µM]	AUC (SB-525334)	IC50 (SB-525334) [µM]	AUC (Shikonin)	IC50 (Shikonin) [µM]	AUC (BIRB 0796)	IC50 (BIRB 0796) [µM]	AUC (VX-702)	IC50 (VX-702) [µM]
NCI-H82 (small cell lung carcinoma, suspension)	0.982	> 5	0.983	> 10	0.97	> 8	0.967	> 5.12	0.76	3.36	0.987	> 5.12	0.919	> 2	0.977	> 4	0.963	> 5.12	0.863	15.8	0.958	> 16	0.989	> 10	0.939	> 2
NCI-H226 (lung squamous cell carcinoma, adherent)	0.979	> 5	0.968	> 10	0.864	7.55	0.972	> 5.12	0.75	3.4	0.977	> 5.12	0.987	> 2	0.843	3.04	0.918	> 5.12	0.967	> 20	0.411	0.562	0.984	> 10	0.983	> 2
NCI-H345 (small cell lung carcinoma, suspension)	0.99	> 5	0.978	> 10	0.99	> 8	0.99	> 5.12	0.92	> 10	0.943	> 5.12	0.987	> 2	0.95	> 4	0.867	5	0.989	> 20	0.495	0.969	0.989	> 10	0.99	> 2
NCI-H446 (small cell lung carcinoma, semi-adherent)	0.984	> 5	0.972	> 10	0.937	> 8	0.978	> 5.12	0.751	3.5	0.885	> 5.12	0.985	> 2	0.935	> 4	0.917	> 5.12	0.938	> 20	0.817	9.76	0.979	> 10	0.98	> 2
NCI-H524 (small cell lung carcinoma, suspension)	0.963	> 5	0.979	> 10	0.958	> 8	0.968	> 5.12	0.645	1.5	0.99	> 5.12	0.977	> 2	0.931	> 4	0.926	> 5.12	0.976	> 20	0.987	> 16	0.989	> 10	0.964	> 2
NCI-H720 (lung carcinoid, suspension)	0.992	> 5	0.981	> 10	0.992	> 8	0.987	> 5.12	0.886	9.47	0.848	3.34	0.987	> 2	0.971	> 4	0.986	> 5.12	0.984	> 20	0.989	> 16	0.992	> 10	0.989	> 2
NCI-H747 (large intestine, adherent)	0.98	> 5	0.962	> 10	0.921	> 8	0.805	3.29	0.764	4.4	0.76	2.18	0.981	> 2	0.904	> 4	0.622	0.746	0.942	> 20	0.377	0.425	0.981	> 10	0.98	> 2
NCI-H847 (small cell lung carcinoma, adherent)	0.993	> 5	0.986	> 10	0.96	> 8	0.992	> 5.12	0.605	1.14	0.988	> 5.12	0.984	> 2	0.881	2.83	0.921	> 5.12	0.921	> 20	0.487	0.927	0.993	> 10	0.993	> 2
NCI-H1155 (large cell lung carcinoma, suspension)	0.97	> 5	0.979	> 10	0.979	> 8	0.985	> 5.12	0.791	3.64	0.984	> 5.12	0.979	> 2	0.993	> 4	0.975	> 5.12	0.918	> 20	0.896	13.4	0.981	> 10	0.984	> 2
